Results as given in patent publication US5081131A, “Omega-((hetero)alkyl)benz(cd)-indol-2-amines” (American Cyanamid Company, priority 1988, dated 1992).
Values joined by “and” are separate entries in the source; they are usually repeats but may differ in a detail not shown here. Identical values can stand only once. At least one read-out could not be matched to a standard name with certainty.

System: spontaneously hypertensive rats
Test: Hypotensive activity in spontaneously hypertensive rats (MABP)
Format: in vivo, rat (Okamoto strain)
Details: SHR, gavage, two doses of 10 mg/kg or less 24 h apart, MABP at 28 h, average baseline 160±1.5 mm Hg
Procedure: The novel compounds of the present invention are active hypotensive agents and were tested for hypotensive activity by the method of P. S. Chan and D. Poorvin, Clinical and Experimental Hypertension, 1 (6), 817-830 (1979). Male, 16 week old, spontaneously hypertensive rats of the Okamoto strain, from Taconic Farms, Germantown, N.Y., having an average mean arterial blood pressure of 160±1.5 mm of mercury, were used in the test. One to 4 rats were used per test compound. A rat was dosed by gavage with a test compound, suspended in 2% pre-boiled starch at a concentration of 50 mg/ml, at a doses of 10 mg/kg of body weight or less, with 0.9% sodium chloride loading at a dose of 25 ml/kg of body weight. A second identical dose of the test compound, without sodium chloride loading was given 24 hours later. At 28 hours after initial dose the mean arterial blood pressure (MABP) was measured. The procedure was repeated in a second and third rat when necessary.

Compound	Avg. MABP in mm Hg (No. of Rats)
c1cc2c3c(cccc3c1)C(NCCn1ccnc1)=N2 [N-(2-(1H-imidazol-1-yl)ethyl)benz(cd)indol-2-amine]	100 mm Hg and 101 mm Hg

System: alpha-adrenoceptor
Test: In vitro alpha-adrenoceptor binding in heart membrane (3H-prazocin displacement)
Parameters: species or system Sprague-Dawley rat
Details: test compound at 10 micromoles, 2.5 nM 3H-prazocin; mean of three incubations

Compound	Percent Specific Binding [%]
Cc1nccn1CCCNC1=Nc2cccc3cccc1c23 [N-(3-(2-Methyl-1H-imidazol-1-yl)propyl)benz(cd)indol-2-amine, monohydriodide]	66.7
Cl.Cl.c1cc2c3c(cccc3c1)C(NCCCCCCCCCCn1ccnc1)=N2 [N-(10-(1H-imidazol-1-yl)decyl)benz(cd)indol-2-amine, dihydrochloride]	87.1
O=C(O)/C=C/C(=O)O.c1cncc(OCCCNC2=Nc3cccc4cccc2c34)c1 [N-(3-(3-Pyridinyloxy)propyl)benz(cd)indol-2-amine, fumarate]	85.1
Brc1ccc2c3c(cccc13)C(NCCCCCCCCCCn1ccnc1)=N2 [6-Bromo-N-(10-(1H-imidazol-1-yl)decyl)benz(cd)indol-2-amine]	66.7
O=C(O)/C=C/C(=O)O.c1cncc(CCCNC2=Nc3cccc4cccc2c34)c1 [N-(3-(3-Pyridinyl)propyl)benz(cd)indol-2-amine, fumarate]	76.1
CC(CCCNC1=Nc2cccc3cccc1c23)n1ccnc1.O=C(O)/C=C/C(=O)O (stereo not drawn) [N-(4-(1H-imidazol-1-yl)pentyl)benz(cd)indol-2-amine, fumarate]	65.3
Brc1ccc2c3c(cccc13)C(NCCCCc1cccnc1)=N2.O=C(O)/C=C/C(=O)O [6-Bromo-N-(4-(3-pyridinyl)butyl)benz(cd)indol-2-amine fumarate]	68.4
O=C(O)/C=C/C(=O)O.O=C(O)/C=C/C(=O)O.c1cc2c3c(cccc3c1)C(NCCCn1ccnc1)=N2 [N-(3-(1H-imidazol-1-yl)propyl)benz(cd)indol-2-amine, bis-fumarate]	71.7
Clc1ccc2c3c(cccc13)C(NCCCCn1ccnc1)=N2.O=C(O)/C=C/C(=O)O [6-Chloro-N-(4-(1H-imidazol-1-yl)butyl)benz(cd)indol-2-amine, fumarate]	65.6
O=C(O)/C=C/C(=O)O.c1cc2c3c(cccc3c1)C(NCCCCCCCCCCn1ccnc1)=N2 [N-(10-(1H-imidazol-1-yl)decyl)benz(cd)indol-2-amine, fumarate]	64.8
CC(CNC1=Nc2cccc3cccc1c23)Cn1ccnc1.O=C(O)/C=C/C(=O)O (stereo not drawn) [N-(3-(1H-imidazol-1-yl)-2-methylpropyl)benz(cd)indol-2-amine, fumarate]	67.0
